Test results taken from the supplement of paper PMC3334620.
Whole data set: some 33,000 sequences, median “E-score (-0.5 to 0.5)” near -0.035, cut for the highest 2% near 0.35. The list shows a part of the results.

target: T1, Pdr3 (UniProt P33200); assay: PBM E-score (8-mer binding enrichment) (E-score (-0.5 to 0.5)); higher = stronger / more preferred TF binding; most listed sequences are background and not binding sites; details: protein concentration: 200 nM; construct: GST-full length
T1 sequence: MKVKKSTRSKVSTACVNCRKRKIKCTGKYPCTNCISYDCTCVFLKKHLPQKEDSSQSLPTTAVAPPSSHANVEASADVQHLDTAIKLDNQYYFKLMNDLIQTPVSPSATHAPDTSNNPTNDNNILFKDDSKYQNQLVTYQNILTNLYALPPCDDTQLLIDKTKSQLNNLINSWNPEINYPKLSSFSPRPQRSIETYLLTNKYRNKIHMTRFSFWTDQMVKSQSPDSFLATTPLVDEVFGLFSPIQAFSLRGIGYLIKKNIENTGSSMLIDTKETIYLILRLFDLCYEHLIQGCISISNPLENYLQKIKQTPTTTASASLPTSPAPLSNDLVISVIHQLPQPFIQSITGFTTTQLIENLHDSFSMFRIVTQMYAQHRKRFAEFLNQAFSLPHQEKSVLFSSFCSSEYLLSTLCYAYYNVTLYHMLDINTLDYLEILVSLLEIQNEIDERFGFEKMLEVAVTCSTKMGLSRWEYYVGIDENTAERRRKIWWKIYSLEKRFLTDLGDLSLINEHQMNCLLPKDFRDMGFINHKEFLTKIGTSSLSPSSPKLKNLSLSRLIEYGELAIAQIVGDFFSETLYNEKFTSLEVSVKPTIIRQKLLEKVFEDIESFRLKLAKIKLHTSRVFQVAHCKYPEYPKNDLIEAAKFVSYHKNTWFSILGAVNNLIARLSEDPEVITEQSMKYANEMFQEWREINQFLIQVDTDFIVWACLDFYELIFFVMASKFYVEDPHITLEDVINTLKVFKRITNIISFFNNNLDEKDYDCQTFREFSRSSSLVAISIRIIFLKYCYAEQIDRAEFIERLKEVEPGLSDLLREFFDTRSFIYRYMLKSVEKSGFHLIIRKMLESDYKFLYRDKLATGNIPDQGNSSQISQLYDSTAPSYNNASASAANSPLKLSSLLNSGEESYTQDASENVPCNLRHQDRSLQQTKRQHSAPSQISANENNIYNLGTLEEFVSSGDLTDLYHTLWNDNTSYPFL
In short: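 GST-tagged yeast TFs (full-length or DNA-binding domain) were made by PURExpress in vitro transcription/translation and applied at about 100-200 nM to universal all-10-mer Agilent arrays. The arrays were made double-stranded by primer extension, on fresh or once-stripped slides. Bound protein was detected with fluorescent anti-GST, and scans were normalised with masliner. Each ungapped eight-base word, pooled with its reverse complement, received an E-score (modified Wilcoxon-Mann-Whitney statistic) from the Universal PBM Analysis Suite.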

| Sequence | PBM E-score |
| --- | --- |
| CTCAGCCC | -0.241 |
| GTCGCTCA | -0.112 |
| GATCAGGA | 0.0747 |
| GATAGATA | 0.0126 |
| AAGATGGT | 0.00413 |
| ACAGGACT | -0.219 |
| CGAATTGA | 0.063 |
| GATTGCAC | -0.0178 |
| CTCCACCC | -0.165 |
| TGTGAAAA | -0.142 |
| ACATATAG | -0.0381 |
| AAGGAACT | 0.0764 |
| AGTATTGA | -0.122 |
| CCTCTGCG | -0.158 |
| AAACGACA | -0.0828 |
| ACGTAAAG | -0.232 |
| CCTGTAGC | -0.282 |
| CTCTGGGC | -0.109 |
| GCCTTAAC | -0.241 |
| CTTGTGCA | 0.0626 |
| AGAGCGTA | -0.118 |
| TACGATGA | -0.172 |
| ACCCTACC | -0.188 |
| AATGACGC | -0.175 |
| GACGCGCA | 0.0698 |

| Sequence | PBM E-score |
| --- | --- |
| AGTGAGCA | -0.218 |
| ATCGAGAG | -0.0159 |
| CGACGCGC | 0.224 |
| TATCATAA | 0.0184 |
| CGAACCGC | 0.188 |
| AGGGGTAA | -0.213 |
| AACACCGG | 0.265 |
| CGAGGCGC | 0.231 |
| AACCGGGG | 0.199 |
| CACTGTCG | -0.00829 |
| GGCCAGCC | -0.0146 |
| ACAAGCTC | 0.119 |
| CGAAGGAC | 0.0231 |
| ATTTATTA | 0.097 |
| TTTGAAAA | -0.145 |
| AATCAGAA | 0.11 |
| ATCTCCAT | 0.0657 |
| AATTTGAG | -0.131 |
| GGACTGAC | -0.1 |
| ACCCCCCG | 0.0732 |
| ACTATTTC | 0.143 |
| GACTAGTA | -0.117 |
| CCACTGAC | -0.18 |
| CCGTTTCG | 0.295 |
| AATTCGAC | -0.296 |

| Sequence | PBM E-score |
| --- | --- |
| ACAGTTCG | 0.0917 |
| CGCACCGA | -0.07 |
| GATATCAC | -0.0175 |
| CGTTGCAC | 0.108 |
| TGGACAAA | 0.0216 |
| ACGTGCCC | -0.0152 |
| GCCGCCCA | 0.165 |
| GACTGCCA | 0.0687 |
| AGTCAAAG | -0.0639 |
| ACGCACAA | -0.0592 |
| AATGAAGG | -0.156 |
| CCTAGAGC | -0.123 |
| CACGCCTA | -0.242 |
| CGGATTAC | 0.18 |
| GGCTTTCA | -0.0234 |
| GTTTCACA | -0.114 |
| CGTTGGAG | -0.136 |
| TCTCTACA | -0.249 |
| GCGGTCCC | 0.121 |
| TTAGGGAA | -0.152 |
| CAGAGAAC | -0.202 |
| AGGCACGA | -0.168 |
| ATGAAAGC | 0.0331 |
| CCTCGATA | 0.202 |
| AGTCTGGA | -0.154 |

| Sequence | PBM E-score |
| --- | --- |
| GCTTCCTA | -0.205 |
| AACAAACG | -0.0956 |
| CGCAACGC | 0.158 |
| GCGCACAC | 0.128 |
| CAGATTTC | -0.124 |
| ACAGTTTA | -0.11 |
| CAAGTCAC | -0.0661 |
| GAGCACCC | 0.0661 |
| GGGGATAC | 0.0434 |
| CAAAATAA | 0.0399 |
| ACGTCCTC | -0.233 |
| AGATACGC | -0.0323 |
| CACATATC | -0.0189 |
| ATCTGAGA | -0.119 |
| GATGACCA | -0.0674 |
| ATTCTACC | -0.0786 |
| ATACAAGC | 0.0244 |
| CGACTGGC | 0.0332 |
| ACTTTATA | 0.00216 |
| ACATGTGA | -0.172 |
| CAGGGTGG | -0.247 |
| CTGTTGAC | -0.162 |
| GTCAGGGA | -0.0697 |
| AGCATAAC | -0.159 |
| GCTCGGTA | 0.123 |

| Sequence | PBM E-score |
| --- | --- |
| TACGGATA | 0.224 |
| ATTGACTC | -0.0509 |
| ATGTTCGA | -0.00896 |
| CTTTGTCA | -0.0902 |
| ACCGCAAG | 0.0785 |
| GCTTGAAA | -0.147 |
| GCGCTTCC | 0.265 |
| ATAACGTC | -0.0105 |
| GGCAGACA | 0.0451 |
| GCCCCAAA | -0.204 |
| TCGCTTCA | -0.114 |
| AATACACC | 0.0523 |
| CGACCTAG | 0.0405 |
| GATCATAC | -0.0477 |
| AGGAATGG | -0.0494 |
| AGACTTCC | 0.0461 |
| CGACGTAC | 0.0357 |
| CGTAGACG | -0.0298 |
| CGCCCTAC | -0.181 |
| AACAACTC | -0.144 |
| GCGTGTAA | -0.198 |
| ACGGTCCG | 0.308 |
| GGGCACAA | -0.0569 |
| GTCGAAGA | -0.0177 |
| CGTGCAAA | -0.153 |

| Sequence | PBM E-score |
| --- | --- |
| GGCAAACA | 0.0626 |
| CCAGATCC | -0.0605 |
| ATATGAGA | 0.0704 |
| CCCATTAG | -0.374 |
| ACTAATTG | 0.0304 |
| GAACGTGC | 0.0634 |
| ACGTCGAG | 0.0168 |
| GAGAGTGC | -0.339 |
| ACCGTGTA | -0.0766 |
| CAATCCAC | -0.0656 |
| TAAGCTGA | -0.00177 |
| AACCGGTA | 0.144 |
| TAACCTAA | -0.148 |
| CTGAAGAA | -0.0648 |
| CTCACCAC | -0.106 |
| GAATTGGC | -0.0131 |
| ATAAACAT | 0.11 |
| GTATGCAA | -0.0515 |
| CTCTAGAA | -0.226 |
| GGGAGAGA | -0.249 |
| CCTTGGGC | -0.113 |
| AGCTTTAG | -0.267 |
| TCATATAA | 0.0554 |
| TAAATTCA | -0.186 |
| CCACCAGA | -0.0864 |

| Sequence | PBM E-score |
| --- | --- |
| GTACATCA | 0.0697 |
| ATCGAATA | -0.219 |
| AGCTGCCT | -0.202 |
| AAGGCGAG | -0.147 |
| GTTGAAAA | -0.0805 |
| ATGGCCAC | -0.293 |
| TAAGAGGA | -0.138 |
| ATGAAAAT | 0.112 |
| CAGTTCAG | -0.0523 |
| AAAATTAC | -0.16 |
| CTGTAAGA | -0.182 |
| CCGTCTAA | 0.262 |
| AGTGACTA | -0.132 |
| ACAGATGC | -0.121 |
| AACCGACT | -0.0007 |
| CGACTGCA | -0.0585 |
| AACAAACC | 0.032 |
| CGCCGCGA | 0.224 |
| GTTAACTA | 0.106 |
| CGTCCCAA | 0.0218 |
| CTCACCCC | 0.0597 |
| CATCTCCC | 0.155 |
